Experimental data reported in the RNAGym collection of RNA variant scans (doi:10.1093/nar/gkz1192).
The source gives no read counts; variants with many changes may rest on few reads.

B1: CPEB3 Ribozyme (parent)
chain: UAACAGGGGGCCACAGCAGAAGCGUUCACGUCGCAGCCCCUGUCAGAUUCUGGUGAAUCUGCGAAUUCUGCUGUAUAUCUC

Variants of: B1
Test: self-cleavage, relative activity (ratio to wild type); higher = more cleavage; in vitro, sequencing
Procedure, shortened: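 CPEB3 self-cleaving ribozyme mutant libraries were made by rounds of error-prone PCR, barcoded, and transcribed in vitro with T7 RNA polymerase for 5 hours at 37°C. Cleavage occurred during transcription and a 15 min DNase I step before EDTA stop. RNAs were reverse transcribed with template switching and Illumina-sequenced, with DNA sequencing mapping barcodes to variants. Relative activity is the variant's cleaved/total read fraction divided by wild type's (minimum 5 reads), averaged across three batches.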

Row | Variant | self-cleavage
1 | U43C U58C U67A U78C | 0.1
2 | A45C U49C U60C A65G U69A U80C | 0.14
3 | U41C A77G U80A | 1.21
4 | U41A U43A C50A | 0.18
5 | U43C U60A A64G U67C | 0.13
6 | G42A U51C U54A | 0.25
7 | C40U A45U U51A U54C A64G | 0.16
8 | U41C U54C U58C | 0.49
9 | U43C A47G U51C U54C | 0.2
10 | C40A U41A U49C | 0.13
11 | U41A U43G U58A U60G U76C | 0.17
12 | U41G U60C A75G U78C | 0.17
13 | A45G A64G A75G | 0.39
14 | U43A G52U U54A U60C | 1.1
15 | U43C A45U U49A A64G U69A U80C | 0.14
16 | U41C A57C U69C U72A | 0.16
17 | A45G A47G U72C | 0.63
18 | A45G U48C A57C G73A | 0.59
19 | U43C U49C A57G U69C | 0.37
20 | A45C C50A U60A A64G | 0.18
21 | U41C A57U C81U | 1.03

Row | Variant | self-cleavage
22 | U41G U43C U54C U66A U67C U72C | 0.47
23 | U41C A64U U72C U80C | 0.35
24 | A45G A47G A65G U80C | 0.44
25 | U41C U43A U60A | 0.2
26 | U41C U76C A77U | 1.18
27 | U41G U54C U58A | 0.09
28 | U41C G42U A56G U74A | 0.09
29 | U41G U69G U76G | 0
30 | A45C G63U U78A | 0.24
31 | U41C A47G U51A U69C | 0.53
32 | A45C A64G U72A U80C | 0.27
33 | U43A U51C U69A | 0.69
34 | A45G A56G C59G U72C A77G | 0.13
35 | A45G G46A A77U | 0.27
36 | U41C U43C A77G | 0.52
37 | C40A U54C A64U G73U | 0.2
38 | G42U U49C C59U | 0.2
39 | A45G G53A U60C A65G U67C | 0.33
40 | U43A U54C U69C U80A | 0.94
41 | U43A A64G U67G U72A | 0.24
42 | U43C A56G U76C | 0.32

Row | Variant | self-cleavage
43 | U41C U66C U69C | 0.15
44 | U41A A56G U67A | 0.11
45 | U43C A57C A64U U76C | 0.1
46 | U41C U60C A65G | 0.19
47 | U43C A65G U69A U80A | 0.08
48 | U41A U54A A64G U67C U76C | 0.12
49 | U41C U43C U51A U80C | 0.4
50 | U43C U49C U58C U72A | 0.38
51 | U41A U54G A56G | 0.25
52 | U41A U49A U51C | 0.21
53 | U43C U72A A77G | 0.77
54 | C40A C44A U67A A75U | 0.13
55 | U41A U74C A75G | 0.26
56 | A45G U48C U49C A64C U72C | 0.11
57 | C40A U54A A57G | 0.08
58 | G42A A45G A75G | 0.13
59 | U41A U60A A65G | 0.44
60 | U43C U60G U78C | 0.07
61 | U41C U54C C62U | 0.12
62 | A45G C50A U67A | 0.21
63 | C44U A45G A47G U48C A64G | 0.03

Row | Variant | self-cleavage
64 | G42A A45G U60A | 0.14
65 | U43A A64G U80A | 0.9
66 | C40U A47G A65G | 0.08
67 | U43C U51A U58A | 0.23
68 | U41A U48C G55U | 0.11
69 | A45G A47G U58A | 0.17
70 | U41G U54A A77U | 0.29
71 | U41C A45G U80C | 0.81
72 | U41A U48C U49G | 0.09
73 | U43C A64G U69A | 0.24
74 | U43C A45U A64U | 0.46
75 | C40A U41C A45U | 0.17
76 | U41A U48C U78A | 0.18
77 | C44A U60C U67A U78A | 0.07
78 | U41A G42A A56U U60A | 0.13
79 | G42A U54C A56U C62U A64G U69A A77C | 0.06
80 | A45G A47U G53A | 0.3
81 | A45C U72A U74G | 0.54
82 | C40U A65G C81U | 0.09
83 | U43C C62G A65G | 0.08
